These results are taken from the supplement of paper PMC12217912.

The list shows a part of the results. Sequences were assembled here from the parent chain. Inactive controls read about 0.05.

B1: TEV protease; numbered along this chain (parent)
chain: MGESLFKGPRDYNPISSSICHLTNESDGHTTSLYGIGFGPFIITNKHLFRRNNGTLVVQSLHGVFKVKDTTTLQQHLVDGRDMIIIRMPKDFPPFPQKLKFREPQREERICLVTTNFQTKSMSSMVSDTSCTFPSGDGIFWKHWIQTKDGQCGSPLVSTRDGFIVGIHSASNFTNTNNYFTSVPKNFMELLTNQEAQQWVSGWRLNADSVLWGGHKVFMVKPEEPFQPVKEATQL
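Also: Bxb1 expression induced with 0.2% (w/v) L-rhamnose at OD600 near 0.5, cultures sampled hourly, flipped fraction per protease–substrate barcode pair counted by paired-end Illumina sequencing.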

The variants in the assay derive from B1. In words: raw area under fraction-flipped curve 0-4 h after induction (AUC4h, not background-subtracted), DNA-recorder readout of cleavage of the substrate (dimensionless); higher = more cleavage of the substrate by the protease variant. The settings on record: temperature: 34 °C; time window: 0-4 h after rhamnose induction.
Take MGKSLFKGPRDYNPISSSICHLTNESDGHTTSLYGIGFGPFIITNKHLFRRNNGTLVVQSLHGVFKVKDTTTLQQHLVDGRDMIIIRMPKDFPPFPQKLKFREPQREERICLVTTNFQTKSMSSMVSDTSCTFPSGDGIFWKHWIQTKDGQCGSPLVSTRDGFIVGIHSASNFTNTNNYFTSVPKNFMELLTNQEAQQWVSGWRLNADSVLWGGHKVFMVKPEEPFQPVKEATQL [E3K]: the “area with substrate ENLYFFS” value came to 0.0659, the “area with substrate ENLYFHS” value amounted to 0.0633, the “area with substrate ENLYFMS” value turned out to be 0.0738 and the “area with substrate ENLYFNS” value was 0.0835. The “area with substrate ENLYFPS” value came out at 0.059, the “area with substrate ENLYFRS” value stood at 0.0541, the “area with substrate ENLYFTS” value is 0.0565 and the “area with substrate ENLYFWS” value was 0.0658. Moreover, the “area with substrate ENLYFYS” value is 0.0668.
For MGESLFKGPRDYNPISSSICHLTNESDGHTTSLYGIGFGPFIITNKHLFRRNNGTLVVQSLHGVFKVKDTTTLQQHLVDGRDMIIIRMPKDFPPFPQKLKFREPQREERICLVTTNFQTKSMSSMVSDTSCTFPSGDGIFWKHWIQTKDGQCGSPLVSTRDGFIVGIHSASNFTNTNNYFTSVPKNFMELLTNQEAQQWVSGWRLNADSVLWGGHKVFMVKPEEPFQPVKDATQL [E231D], the “area with substrate ENLYFFS” value was 0.0567, the “area with substrate ENLYFIS” value is 0.0636, the “area with substrate ENLYFKS” value was 0.0705 and the “area with substrate ENLYFPS” value was determined as 0.0558. For the same variant, the “area with substrate ENLYFSS” value amounted to 0.0689 and the “area with substrate ENLYFYS” value was determined as 0.0617.
As to MGESLFKGPRDYNPISSSICHLTNESDGHTTSLYGIGFGPFIITNKHLFRRNNGTLVWQSLHGVFKVKDTTTLQQHLVDGRDMIIIRMPKDFPPFPQKLKFREPQREERICLVTTNFQTKSMSSMVSDTSCTFPSGDGIFWKHWIQTKDGQCGSPLVSTRDGFIVGIHSASNFTNTNNYFTSVPKNFMELLTNQEAQQWVSGWRLNADSVLWGGHKVFMVKPEEPFQPVKEATQL [V58W], the “area with substrate ENLYFIS” value turned out to be 0.0258, the “area with substrate ENLYFKS” value turned out to be 0.0314 and the “area with substrate ENLYFWS” value stood at 0.0409.
Turning to MGESLFKGPRDYNPISSSICHLTNESDGHTTSLYGIGFGPFIITNKHLFRRNNGTLVVQSLHGVFKVKDTTTLQQHLVDGRDMIIIRMPKDFPPFPQKTKFREPQREERICLVTTNFQTKSMSSMVSDTSCTFPSGDGIFWKHWIQTKDGQCGSPLVSTRDGFIVGIHSASNFTNTNNYFTSVPKNFMELLTNQEAQQWVSGWRLNADSVLWGGHKVFMVKPEEPFQPVKEATQL [L99T], the “area with substrate ENLYFHS” value amounted to 0.0689, the “area with substrate ENLYFKS” value amounted to 0.0761, the “area with substrate ENLYFMS” value worked out at 0.0436 and the “area with substrate ENLYFNS” value was 0.0564. For the same variant, the “area with substrate ENLYFPS” value came to 0.0524 and the “area with substrate ENLYFTS” value was 0.0486.
Consider MGESLFKGPRDYNPISSSICHLTNESDGHTTSLYGIGFGPFIITNKHLFRRNNGTLVVQSLHGVFKVKDTTTLQQHLVDGRDMIIIRMPKDFPPFPQKLKFREPQREERICLVTTNFQTKSMSSMVSDTSCTFPSGDGIFWKHWIQTKDGQCGSPLVSTRDGFIVGIHSASNFTNTNNYFTSVPKNFMELLTFQEAQQWVSGWRLNADSVLWGGHKVFMVKPEEPFQPVKEATQL [N193F], for which the “area with substrate ENLYFHS” value is 0.0427, the “area with substrate ENLYFIS” value was 0.0438, the “area with substrate ENLYFRS” value turned out to be 0.0626 and the “area with substrate ENLYFSS” value was 0.0541. For the same variant, the “area with substrate ENLYFVS” value amounted to 0.0788, the “area with substrate ENLYFWS” value amounted to 0.0515 and the “area with substrate ENLYFYS” value turned out to be 0.0564.
For MGESLFKGPRDYNPISSSICHLTNESDGHTTSLYGIGFGPFIITNKHLFRRNNGTLVVQSLHGVFKVKDTTTLQQHLVDGRDMIIIRMPKDFPPFPQKLKFREPQREERICLVTTNFQTKSMSSMVSDTSCTFPSGDGIFWKHWIQTKDGQCGSPLVSTRDGFIVGIHSASNFTNTNNYFTSVPKNFMELLTNQEAQQWVSGWRLNADSVLWGGTKVFMVKPEEPFQPVKEATQL [H215T], the “area with substrate ENLYFFS” value worked out at 0.0754, the “area with substrate ENLYFGS” value turned out to be 0.0527, the “area with substrate ENLYFHS” value is 0.0717 and the “area with substrate ENLYFMS” value was determined as 0.0564. Further, the “area with substrate ENLYFNS” value came to 0.0617, the “area with substrate ENLYFPS” value is 0.0676, the “area with substrate ENLYFRS” value turned out to be 0.0532 and the “area with substrate ENLYFSS” value came to 0.0553. The “area with substrate ENLYFTS” value was 0.0539 and the “area with substrate ENLYFYS” value worked out at 0.0661.
Consider MGESLFKGPRDYNPISSSICHLTNESDGHTTSLYGIGFGPFIITNKHLFRRNNGTLVVQSLHGVFKVKDTTTLQQHLVDGRDMIIIRMPKDFPPFPQKLKFREPQREERICLVTTNFQTKSMSSMVSDTSCTFPSGDGIFWKHWIQTKDGQCGSPLVSTRDGFIVGIHSASNFTNTNNYFTSVPKNFMEVLTNQEAQQWVSGWRLNADSVLWGGHKVFMVKPEEPFQPVKEATQL [L190V], for which the “area with substrate ENLYFFS” value was 0.0951, the “area with substrate ENLYFIS” value was determined as 0.051, the “area with substrate ENLYFKS” value turned out to be 0.0776 and the “area with substrate ENLYFLS” value came to 0.0644. In addition, the “area with substrate ENLYFNS” value came out at 0.0501, the “area with substrate ENLYFPS” value is 0.0572, the “area with substrate ENLYFTS” value was determined as 0.0576 and the “area with substrate ENLYFYS” value is 0.0801.
MGESLFKGPRDYNPISSSICHLTNESDGHTTSLYGIGFGPFIITNKHLFRRNNGTLVVQSLHGVFKVKDTTTLQQHLVDGRDMIIIRMPKDFPPFPQKLKFREPQREERICLVTTNFQTKSMSSMVSDTSCTFPSGDGIFWKHWIQTKDGQCGSPLVSTRDGFIVGIHSNSNFTNTNNYFTSVPKNFMELLTNQEAQQWVSGWRLNADSVLWGGHKVFMVKPEEPFQPVKEATQL [A170N]: the “area with substrate ENLYFHS” value came to 0.0515, the “area with substrate ENLYFIS” value is 0.0519, the “area with substrate ENLYFMS” value stood at 0.0544 and the “area with substrate ENLYFNS” value worked out at 0.0594. Besides, the “area with substrate ENLYFSS” value was determined as 0.0405.
Consider MGESLFKGPRDYNPISSSICHLTNESDGHTTSLYGIGFGPFIITNKHLFRRNNGTLVVQSLHGVFKVKDTTTLQQHLVDGRDMIIIRMPKDFPPFPQKLKFREPQREERICLVTTNFQTKSMSSMVSDTSCTFPSGDGIFWKHWIQTKDGQCGSPLVSHRDGFIVGIHSASNFTNTNNYFTSVPKNFMELLTNQEAQQWVSGWRLNADSVLWGGHKVFMVKPEEPFQPVKEATQL [T159H], for which the “area with substrate ENLYFFS” value turned out to be 0.0656, the “area with substrate ENLYFHS” value turned out to be 0.057, the “area with substrate ENLYFIS” value amounted to 0.0248 and the “area with substrate ENLYFLS” value was 0.0616. The “area with substrate ENLYFRS” value is 0.0604 and the “area with substrate ENLYFWS” value was 0.0533.
With MGESLFKGPRDYNPISSSICHLTNESDGHTTSLYGIGFGPFIITNKHLFRRNNGTLVVQSLHGVFKVKDTTTLQQHLVDGRDMIIIRMPKDFPPFPQKLKFREPQREERICLVTTNIQTKSMSSMVSDTSCTFPSGDGIFWKHWIQTKDGQCGSPLVSTRDGFIVGIHSASNFTNTNNYFTSVPKNFMELLTNQEAQQWVSGWRLNADSVLWGGHKVFMVKPEEPFQPVKEATQL [F117I], the “area with substrate ENLYFFS” value turned out to be 0.0734, the “area with substrate ENLYFGS” value came to 0.0482, the “area with substrate ENLYFKS” value stood at 0.0783 and the “area with substrate ENLYFMS” value was 0.0728. Moreover, the “area with substrate ENLYFPS” value was found to be 0.0527, the “area with substrate ENLYFRS” value stood at 0.0785, the “area with substrate ENLYFSS” value came to 0.0836 and the “area with substrate ENLYFTS” value was 0.0617. Also, the “area with substrate ENLYFVS” value was determined as 0.0419 and the “area with substrate ENLYFWS” value was determined as 0.0555.
